Assay results: PubChem BioAssay (EPA / NIEHS)
The list shows a part of the results, in another mix than the full data. Results filed as inconclusive are left out. Some structures have more than one record in an assay (separate samples or runs), and their calls can disagree. Activity calls are given as the source filed them. Rule for the calls: active = hit-call score of the fitted dose curve at least 0.9, where 1 is the maximum; inconclusive = response in the unintended direction; inactive = score below 0.9.

biological target: Cellular tumor antigen p53 (Homo sapiens) (UniProt P04637); assay: TOX21_p53_BLA_p2_ratio: Tox21 HCT-116 p53 Agonism Beta-lactamase Assay, Ratio, Phase 2 (AID 2283592)
Summary of the method: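 Gain-of-signal p53 agonism was scored from the beta-lactamase FRET ratio (460/530 nm, 405 nm excitation) in HCT116 cells treated 16 h at 37C, 5% CO2, with DMSO serving as negative control and baseline.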

Chain of UniProt P04637 (P04637 whole entry, looked up): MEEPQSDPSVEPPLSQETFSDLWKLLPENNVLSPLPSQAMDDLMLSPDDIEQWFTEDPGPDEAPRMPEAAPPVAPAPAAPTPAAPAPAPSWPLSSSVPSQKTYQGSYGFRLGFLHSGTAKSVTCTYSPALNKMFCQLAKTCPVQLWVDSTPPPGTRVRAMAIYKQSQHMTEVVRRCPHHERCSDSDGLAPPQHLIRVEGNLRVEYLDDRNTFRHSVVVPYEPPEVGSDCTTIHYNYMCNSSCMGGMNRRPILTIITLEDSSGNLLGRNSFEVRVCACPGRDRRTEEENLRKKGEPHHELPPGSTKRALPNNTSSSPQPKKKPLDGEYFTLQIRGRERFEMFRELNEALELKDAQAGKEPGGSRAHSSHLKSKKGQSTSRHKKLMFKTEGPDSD

**Q.** With Oc1cc(O)cc(O)c1 as the compound, how does the outcome read?
**A.** inactive

**Q.** Which outcome does the source give for NC[C@H]1O[C@H](O[C@H]2[C@H](O)[C@@H](O[C@H]3O[C@H](CO)[C@@H](O)[C@H](N)[C@H]3O)[C@H](N)C[C@@H]2N)[C@H](N)C[C@@H]1O here?
**A.** inactive

**Q.** Which outcome does the source give for Nc1ccc(C(=O)O)c(O)c1 here?
**A.** inactive

**Q.** For CC(C)Nc1nc(N)nc(Cl)n1, which outcome is on record?
**A.** inactive

**Q.** For COCCOCCOCCO, which outcome is on record?
**A.** inactive

**Q.** For Oc1ccc(-c2ccc(O)cc2)cc1, which AC50 is on record?
**A.** active: 45.4 µM

**Q.** With Cc1ccccc1CCO as the compound, how does the outcome read?
**A.** inactive

**Q.** With CCC1NC(=O)c2cc(S(N)(=O)=O)c(Cl)cc2N1 (centres undefined) as the compound, how does the outcome read?
**A.** inactive

**Q.** For COC(=O)C(CN)c1c[nH]c2ccc(OC)cc12 (centres undefined), which outcome is on record?
**A.** inactive

**Q.** With Cc1ccccc1C(=O)Nc1ccc(C(=O)N2CCCC(O)c3cc(Cl)ccc32)c(C)c1 (centres undefined) as the compound, how does the outcome read?
**A.** inactive

**Q.** For C=C[Si](OCCOC)(OCCOC)OCCOC, which outcome is on record?
**A.** inactive

**Q.** Which outcome does the source give for CC[C@H]1OC(=O)[C@H](C)[C@@H](O[C@H]2C[C@@](C)(OC)[C@@H](O)[C@H](C)O2)[C@H](C)[C@@H](O[C@@H]2O[C@H](C)C[C@H](N(C)C)[C@H]2O)[C@](C)(OC)C[C@@H](C)C(=O)[C@H](C)[C@@H](O)[C@]1(C)O here?
**A.** inactive

**Q.** With CCc1cccc2c3c([nH]c12)C(CC)(CC(=O)O)OCC3 (centres undefined) as the compound, how does the outcome read?
**A.** inactive

**Q.** With CC(C)(C)c1ccc(O)c(C(C)(C)C)c1 as the compound, how does the AC50 read?
**A.** active: 54.5 µM

**Q.** For N#C/C(=C1/SC[C@@H](c2ccc(Cl)cc2Cl)S1)n1ccnc1, which outcome is on record?
**A.** inactive

**Q.** For O=C1c2c(O)cccc2C([C@@H]2O[C@H](CO)[C@@H](O)[C@H](O)[C@H]2O)c2cc(CO)cc(O)c21 (some centres undefined), which outcome is on record?
**A.** inactive

**Q.** With CN(C)CC/C=C1/c2ccccc2COc2ccc(CC(=O)O)cc21 as the compound, how does the outcome read?
**A.** inactive

**Q.** With CCO/C([O-])=N/c1c[n+](N2CCOCC2)no1 as the compound, how does the outcome read?
**A.** inactive

**Q.** Which outcome does the source give for c1ccc2[nH]cnc2c1 here?
**A.** inactive

**Q.** Which outcome does the source give for C=COCC1CCC(COC=C)CC1 (centres undefined) here?
**A.** inactive

**Q.** With C=CCCCCCCCCC=O as the compound, how does the outcome read?
**A.** inactive

test system: not listed separately; assay: TOX21_p53_BLA_p3_viability: Viability Assessment in the Tox21 HCT-116 p53 Agonism Beta-lactamase Assay, Phase 3 (AID 2283593);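 note: cells exposed to compound for 16 h before reading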
Summary of the method: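 HCT-116 cells (4000/well) rested 5 h at 37C, then got DMSO compounds by pin tool (217-fold dilution) for 16 h at 37C, 5% CO2. After the bla read, CellTiter-Glo was added and luminescence read at 30 min, room temperature.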

**Q.** For CC(C)C[C@H](NC(=O)OCC1c2ccccc2-c2ccccc21)C(=O)O, which outcome is on record?
**A.** inactive

**Q.** Which outcome does the source give for COCCOCCOCCOCCOC here?
**A.** inactive

**Q.** Which outcome does the source give for C[C@H]1C[C@H]2[C@@H]3CCC4=CC(=O)C=C[C@]4(C)[C@@]3(F)[C@@H](O)C[C@]2(C)[C@@]1(O)C(=O)CO here?
**A.** inactive

**Q.** With CC(CN1c2ccccc2Sc2ccccc21)N(C)C (centres undefined) as the compound, how does the outcome read?
**A.** inactive

**Q.** Which outcome does the source give for OCCOCCN1CCN(C(c2ccccc2)c2ccc(Cl)cc2)CC1 (centres undefined) here?
**A.** inactive

**Q.** With O=C(c1ccc(F)cc1)C1CCN(CCn2c(=S)[nH]c3ccccc3c2=O)CC1 as the compound, how does the outcome read?
**A.** inactive

**Q.** Which outcome does the source give for O=C=Nc1ccc(Cl)c(Cl)c1 here?
**A.** inactive

**Q.** Which outcome does the source give for O=C(Cl)c1c(Cl)c(Cl)c(C(=O)Cl)c(Cl)c1Cl here?
**A.** inactive

**Q.** For C=CCCC(=O)/C=C/C1C(C)=CCCC1(C)C (centres undefined), which outcome is on record?
**A.** inactive

**Q.** For CC[N+](CC)(CCNC(=O)C(=O)NCC[N+](CC)(CC)Cc1ccccc1Cl)Cc1ccccc1Cl, which outcome is on record?
**A.** inactive

**Q.** With CC(C)[C@@H](N)C(=O)O as the compound, how does the outcome read?
**A.** inactive

**Q.** Which outcome does the source give for CCCc1nc(C(C)(C)O)c(C(=O)OCc2oc(=O)oc2C)n1Cc1ccc(-c2ccccc2-c2nn[nH]n2)cc1 here?
**A.** inactive

**Q.** With Cc1nc(-c2ccc3c(c2)CCN(CCC2CCC(NC(=O)/C=C/c4ccc(F)cc4)CC2)CC3)no1 (centres undefined) as the compound, how does the outcome read?
**A.** inactive

**Q.** With O=S(=O)(O)c1cccc2c(S(=O)(=O)O)cccc12 as the compound, how does the outcome read?
**A.** inactive

**Q.** With S=C(SSSSSSC(=S)N1CCCCC1)N1CCCCC1 as the compound, how does the outcome read?
**A.** inactive

**Q.** Which outcome does the source give for CCCOCCO here?
**A.** inactive

biological target: Cellular tumor antigen p53 (Homo sapiens) (UniProt P04637); assay: TOX21_p53_BLA_p3_ratio: Tox21 HCT-116 p53 Agonism Beta-lactamase Assay, Ratio, Phase 3 (AID 2283596)
Summary of the method: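 HCT116 p53-bla cells (4000/well) given compound in DMSO (217-fold dilution) after 5 h, incubated 16 h at 37C. CCF4-AM substrate 2 h at room temperature; 460/530 nm emission ratio, gain fitted against DMSO.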

**Q.** Which outcome does the source give for CC(C)(C)NCC(O)COc1cccc2c1C[C@H](O)[C@H](O)C2 (some centres undefined) here?
**A.** inactive

**Q.** Which outcome does the source give for Oc1ccc(-c2ccc(O)cc2)cc1 here?
**A.** inactive

**Q.** Which outcome does the source give for CC(CN1c2ccccc2Sc2ccccc21)N(C)C (centres undefined) here?
**A.** inactive

**Q.** Which outcome does the source give for CC(CCc1ccccc1)NCC(O)c1ccc(O)c(C(N)=O)c1 (centres undefined) here?
**A.** inactive

**Q.** With CC(C)C(OC(=O)c1ccccc1)C(C)(C)COC(=O)c1ccccc1 (centres undefined) as the compound, how does the outcome read?
**A.** inactive

**Q.** With O=C1c2c(O)cccc2C([C@@H]2O[C@H](CO)[C@@H](O)[C@H](O)[C@H]2O)c2cc(CO)cc(O)c21 (some centres undefined) as the compound, how does the outcome read?
**A.** inactive

**Q.** Which outcome does the source give for CCO/C([O-])=N/c1c[n+](N2CCOCC2)no1 here?
**A.** inactive
